± gives the standard deviation of the averaged measurements. This is one part of the list.

We go through 45 sequences from the supplement of paper PMC11417369.

This experiment deals with PfAP2-LT AP2 domain (GST-tagged). Put plainly: gcPBM binding intensity (ln(normalized median fluorescence intensity)); higher = stronger DNA binding. In a few lines: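 For binding intensity, the highest Masliner-normalised natural-log median intensity across replicate spots of either probe orientation was taken. Protein bound to the array was stained with Alexa488 anti-GST antibody and scanned at 488 nm. The protein, GST-tagged P. falciparum DNA-binding domains from E. coli at about 25 μg on average, had been applied for 1 h to an Agilent 4 × 180k array of primer-extended double-stranded 36-bp intergenic genomic probes and negative controls.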
As for “GAATATTTATCATGGGGTACCTTAAAAAAGGGAAAA [XGTACX_site298]”, the “gcPBM binding intensity (ln)” value turned out to be 8.46 ± 0.5.

In the case of “TTTTATTTATAATATATACACACTAACATTATTTAT [CACACA_site1284]”, the “gcPBM binding intensity (ln)” value was found to be 8.69 ± 0.37. Consider “ATATCTTAAATTATTTGTACATATATATATATATAT [XGTACX_site8034]”, for which the “gcPBM binding intensity (ln)” value turned out to be 9.35 ± 0.18. As to “ATATATATATATATATGTACACAGGACAATAATCCT [XGTACX_site6383]”, the “gcPBM binding intensity (ln)” value worked out at 9.8 ± 0.49. Next, “TATTAAAAGGTGAGTACACACATATATGTGTATATA [CACACA_site7070]”: 9.29 ± 0.38; “TTTTTTTTTATAAATACACACGTACGGGTGCATAAC [CACACA_site8444]”: 8.74 ± 0.45; “ATCATGAAATATATTTGTACACATAATAATATAATA [XGTACX_site8798]”: 8.88 ± 0.38.

With “ATTTGGCAGAAACACACACACACACCCACCCACATA [CACACA_site589]”, the “gcPBM binding intensity (ln)” value was determined as 10.2 ± 0.35. Next, “GGAATAGTCGGGTGCATACACACCTTAAATATAATA [CACACA_site1081]”: 8.75 ± 0.51. The result for “AATCATATTAGTATGGTGCAATATATATATAAATAT [GTGCAC_site9800]” reads 8.88 ± 0.33; that for “AAAGAAAATTCAATAGTGCATAAAAATATATATGTT [GTGCAC_site9680]”, 8.8 ± 0.51. In the case of “ACTAATTACTATAAAACACACATATATTTATTTATA [CACACA_site7263]”, the “gcPBM binding intensity (ln)” value stood at 8.8 ± 0.47. Take “CACATGTATTTATAGGTGCGTAAAAACACTTTATAT [GTGCAC_site9501]”: the “gcPBM binding intensity (ln)” value stood at 8.73 ± 0.38. The result for “TTATAGAAACATTGGTGTACGATATTTACTTCTTTC [XGTACX_site7314]” reads 8.79 ± 0.5; that for “TTTTACTATACTTATGCACACAAGATATATACATAT [CACACA_site2968]”, 9.1 ± 0.32.

With “TAAAAAAATTCATGCACACGAAATAAAAAGCACCTT [CACACA_site4667]”, the “gcPBM binding intensity (ln)” value worked out at 9.21 ± 0.3.

In the case of “TTTTCATTTTTTCGTTGTACATAAATAATATATATT [XGTACX_site856]”, the “gcPBM binding intensity (ln)” value worked out at 8.72 ± 0.38. The result for “AATACATACATACATACACACATATATATATATTAT [CACACA_site3575]” reads 9.34 ± 0.29; that for “AAACATAAATTTTATTGTACATTATATAGAATTTTC [XGTACX_site576]”, 8.46 ± 0.41. The result for “TTTTTTAAAAGATAATATTTTATTAATGTATTCTCA [GTGCAC_negctrl_site598]” reads 8.33 ± 0.51; that for “GCTTAGTTATATAACTGTACTATTTTTATTTATATG [XGTACX_site884]”, 8.9 ± 0.48. The result for “ATAAAGTAAGAAGAAATAATGATTTTCATGGAAAAC [XGTACX_negctrl_site322]” reads 8.67 ± 0.58. As for “AAATATAAGTAAATAAATAAATATATAAATATATAA [TGCATGCA_negctrl_site441]”, the “gcPBM binding intensity (ln)” value was found to be 8.65 ± 0.64. As for “AAATACATACATTAATGTACAAATAGAAACACTCTT [XGTACX_site1512]”, the “gcPBM binding intensity (ln)” value came out at 9.21 ± 0.45. The result for “CTCATAGTTGGGTGCACACAAAAAATTAAAAAAATA [CACACA_site3032]” reads 9.2 ± 0.67.

As to “AATAAGATAAGGAAAAGTACTTATAATTAAACTAAT [XGTACX_site1850]”, the “gcPBM binding intensity (ln)” value came out at 8.81 ± 0.47.

Consider “TTTTTATTCGTTAAATGTACAAAAAAAATGTTATAT [XGTACX_site2804]”, for which the “gcPBM binding intensity (ln)” value amounted to 8.31 ± 0.43. Next, “ATACACTAGAAAATTTTATAGTATTATTAATGTTAA [GTGCAC_negctrl_site101]”: 8.51 ± 0.41; “GATAAACCATATATAACACACATATGAATATTGCAA [CACACA_site6735]”: 9.1 ± 0.33. The result for “CACCCATACAGACATACACACACATATATATTAATA [CACACA_site8077]” reads 9.67 ± 0.27. On to “ATATCATATATAAGTCGTACGATGAATAGAATTTTT [XGTACX_site7586]”, for which the “gcPBM binding intensity (ln)” value was determined as 9.2 ± 0.54. The result for “CTTATACAAAAAAAAAGTACATAACATAATAAGAAT [XGTACX_site6782]” reads 8.97 ± 0.47. The result for “TTATTTAAAAATAGCACACATTATATATATATATAT [CACACA_site5556]” reads 9.01 ± 0.27; that for “ACAGATGATCAAAATTGTACAGAGTTATATTATATT [XGTACX_site4642]”, 8.8 ± 0.52; that for “TAAGTAATAGTTTGTGCACACTCAAGTATATCATAT [CACACA_site4035]”, 9.21 ± 0.46. Next, “TTTATTTTTCATTGGGGTACACAAGTTTATTTTATT [XGTACX_site4263]”: 8.95 ± 0.35; “CCATAATTATATGCCAGTACATATTTGTAACAAAAA [XGTACX_site851]”: 8.72 ± 0.37; “CTTTTAAAAAAATTCATGCACACGAAATAAAAAGCA [CACACA_site929]”: 8.93 ± 0.47.

“TATTATTCCATGTGAAGTACAGAAATATAAATAAAT [XGTACX_site5106]”: the “gcPBM binding intensity (ln)” value is 8.64 ± 0.39. Regarding “CAAAATATTTTTATAACACACATATATAGAATGTGC [CACACA_site1145]”, the “gcPBM binding intensity (ln)” value came to 8.77 ± 0.37.

On to “TATATATATATAACAACACACACAGATCATAAAACT [CACACA_site8670]”, for which the “gcPBM binding intensity (ln)” value was determined as 9.64 ± 0.28. Consider “TATTTTTTTTCGTAATGTACATAAAAAATGCAAAAA [XGTACX_site8491]”, for which the “gcPBM binding intensity (ln)” value was 8.27 ± 0.36. The result for “ATTATATAATTTAATCGTACACAAATATTTGTTAGT [XGTACX_site5913]” reads 8.74 ± 0.44; that for “TTTTACTATACTTATGCACACAAGATAAATACATAT [CACACA_site5619]”, 9.05 ± 0.46; that for “ATACCTCAAATTGATACACACAAAAAAAGTAAATTA [CACACA_site3134]”, 9.06 ± 0.35.
